Assay results as given in the RNAGym collection of RNA variant scans (doi:10.1101/gad.245936.114).
Variants at the background level are over-represented here.

B1: tRNA (parent)
chain: CUCUCGGUAGCCAAGUUGGUUUAAGGCGCAAGACUUUAAUUUAUCACUACGAAAUCUUGAGAUCGGGCGUUCGACUCGCCCCCGGGAGAUUUUUUCCUCGAGCAA

Variants of: B1
Assay: nonsense suppression (GFP-seq) (ratio to wild type); higher = more function; SUP4oc tRNA, yeast GFP reporter sort-seq
Outline: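 Sorted GFP/RFP bins of yeast were each Illumina-sequenced with a phred ≥30 cutoff; the cells held a genome-integrated ochre-suppressor tRNA variant from a library with ~3% random mutations, a galactose-driven GFP ochre reporter, and RFP. Culture was in raffinose/galactose medium containing 80 mg/L adenine. Nonsense suppression, termed GFPSEQ, is the median GFP/RFP of the bins weighted by each variant's estimated cell share per bin, relative to the unmutated parent tRNA, for variants reaching ≥100 reads and ≥30 cells.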
Variant C29G C64G has a nonsense suppression of no more than 0.026.
With C29U G59C G66A U70A the nonsense suppression was no more than 0.026.
For A30C U57A A60G C68A A89U, the nonsense suppression was no more than 0.026.
Variant A30U C82G has a nonsense suppression of no more than 0.026.
For A31C C72G G78U, the nonsense suppression was no more than 0.026.
C29G A62U gave a nonsense suppression of no more than 0.026.
Work on A31U A62G yielded a nonsense suppression of no more than 0.026.
Work on A30U G66C C72U A87G yielded a nonsense suppression of no more than 0.026.
For A31C A74C C80G, the nonsense suppression was no more than 0.026.
In the case of C29G U63A, the nonsense suppression is reported as no more than 0.026.
A30U C34G U70G showed a nonsense suppression of no more than 0.026.
With C29U A33C the nonsense suppression was no more than 0.026.
A31U G61U C64G showed a nonsense suppression of no more than 0.026.
For A30U U70C C82G, the nonsense suppression was no more than 0.026.
For A31G U70A C77G, the nonsense suppression was no more than 0.026.
Variant C29U A89G has a nonsense suppression of no more than 0.026.
A31G A54U G59A G61C G88A gave a nonsense suppression of no more than 0.026.
For A30G U35A, the nonsense suppression was no more than 0.026.
In the case of A31U G67A U70G, the nonsense suppression is reported as no more than 0.026.
For A30U U55G, the nonsense suppression was no more than 0.026.
With A30U U55A the nonsense suppression was no more than 0.026.
A30C U55G G59A showed a nonsense suppression of no more than 0.026.
A31C U58A A60U G65U G78C C81G A89G showed a nonsense suppression of no more than 0.026.
For A31G G65A C75A C83U, the nonsense suppression was no more than 0.026.
A30G C77G gave a nonsense suppression of no more than 0.026.
Variant A31U G61U has a nonsense suppression of 0.0345.
A31U G61A gave a nonsense suppression of no more than 0.026.
With C29G C72A the nonsense suppression was no more than 0.026.
Work on A31U A60C yielded a nonsense suppression of 0.0348.
A31U A60U showed a nonsense suppression of 0.647.
A31G U58C G59A gave a nonsense suppression of no more than 0.026.
C29U A87G showed a nonsense suppression of 0.438.
For C29U G65C, the nonsense suppression was no more than 0.026.
In the case of A31C C34U U58A G66A G88C, the nonsense suppression is reported as no more than 0.026.
A30G G73A C75A showed a nonsense suppression of 0.318.
C29G G69C G86C gave a nonsense suppression of no more than 0.026.
Variant C29A U55G C75G has a nonsense suppression of no more than 0.026.
C29G U76A gave a nonsense suppression of no more than 0.026.
A31G C81A showed a nonsense suppression of no more than 0.026.
Variant A30U C72U G85U has a nonsense suppression of no more than 0.026.
With A30U G32U the nonsense suppression was no more than 0.026.
With A30U G32A the nonsense suppression was no more than 0.026.
In the case of C29G G88A, the nonsense suppression is reported as no more than 0.026.
With A31C G32U the nonsense suppression was no more than 0.026.
In the case of A31C C82A G88A, the nonsense suppression is reported as no more than 0.026.
Work on A31C C56A C81G yielded a nonsense suppression of no more than 0.026.
Work on C29U G59C C77U A87U yielded a nonsense suppression of no more than 0.026.
With A30U U35C the nonsense suppression was no more than 0.026.
A31C G59C gave a nonsense suppression of no more than 0.026.
In the case of A30G C64U, the nonsense suppression is reported as 0.0605.
A31U A33C U55A G86A gave a nonsense suppression of no more than 0.026.
A30C U55A G65C gave a nonsense suppression of no more than 0.026.
Variant A30U U57C U63A G66C has a nonsense suppression of no more than 0.026.
Work on A31C G88C yielded a nonsense suppression of no more than 0.026.
Variant A31C G88A has a nonsense suppression of no more than 0.026.
Variant A31G A33G U55C G61A has a nonsense suppression of 0.727.
For C29G A74C, the nonsense suppression was no more than 0.026.
A31G U58G gave a nonsense suppression of no more than 0.026.
Variant A30U A33C U57G C64A G65C has a nonsense suppression of no more than 0.026.
For A31C U55C G78C, the nonsense suppression was no more than 0.026.
C29G G61A G88A showed a nonsense suppression of no more than 0.026.
A31G U70C showed a nonsense suppression of 0.0279.
For A31G U70G, the nonsense suppression was no more than 0.026.
Variant A30G C75A G78A has a nonsense suppression of no more than 0.026.
A30U G85A showed a nonsense suppression of 0.52.
For A30U A62G G78C A89U, the nonsense suppression was no more than 0.026.
Variant A31C C64A G69A G85C has a nonsense suppression of no more than 0.026.
A30C A54C G73U gave a nonsense suppression of no more than 0.026.
Work on A31G A74C yielded a nonsense suppression of no more than 0.026.
With C29G A60G C72U U76C the nonsense suppression was no more than 0.026.
Work on A31G G67U A74G U76G C81A yielded a nonsense suppression of no more than 0.026.
Work on A30G G78A yielded a nonsense suppression of 0.101.
A30G C83A showed a nonsense suppression of no more than 0.026.
A31U G66C A87C showed a nonsense suppression of no more than 0.026.
A30C C72G showed a nonsense suppression of no more than 0.026.
In the case of A30C G65A G66C C72A G84C A87G, the nonsense suppression is reported as no more than 0.026.
With A30C A31C A62U the nonsense suppression was no more than 0.026.
With A31C U76C the nonsense suppression was no more than 0.026.
Work on A31C C72U C75U yielded a nonsense suppression of no more than 0.026.
A30C A87G gave a nonsense suppression of no more than 0.026.
A30C A87C showed a nonsense suppression of no more than 0.026.
With A31C C77G the nonsense suppression was no more than 0.026.
In the case of A30C U57C U70G, the nonsense suppression is reported as no more than 0.026.
In the case of A31U A33G G59A U76A, the nonsense suppression is reported as no more than 0.026.
With A30C U57G U71C C82A the nonsense suppression was no more than 0.026.
Work on C29U U35C yielded a nonsense suppression of 0.0545.
C29A U76C gave a nonsense suppression of no more than 0.026.
Work on A30U G67A G73U A74G C81A yielded a nonsense suppression of no more than 0.026.
Work on A31C U63C yielded a nonsense suppression of no more than 0.026.
In the case of A31C A54U U55C G66U G69A, the nonsense suppression is reported as no more than 0.026.
A31G A60C C82U gave a nonsense suppression of no more than 0.026.
Work on C29G A31G U70C G84U yielded a nonsense suppression of no more than 0.026.
With C29U G69C the nonsense suppression was no more than 0.026.
Work on C29U A60U C77A yielded a nonsense suppression of no more than 0.026.
With A31C G84A the nonsense suppression was no more than 0.026.
Work on A31U G78A yielded a nonsense suppression of no more than 0.026.
Variant A30G C34G U55G G69C C79A has a nonsense suppression of no more than 0.026.
For A30C U57G, the nonsense suppression was no more than 0.026.
For A31U A60C G66C U70A G85A, the nonsense suppression was no more than 0.026.
Work on A31G G66U C81G yielded a nonsense suppression of no more than 0.026.
A30G U57A showed a nonsense suppression of no more than 0.026.
A31C A33U showed a nonsense suppression of no more than 0.026.
In the case of A31U G67C U70A C81A, the nonsense suppression is reported as no more than 0.026.
In the case of C29G G69U, the nonsense suppression is reported as no more than 0.026.
Variant A30G C77A G78A has a nonsense suppression of no more than 0.026.
With C29U C34G the nonsense suppression was no more than 0.026.
With A30U U55A A74C the nonsense suppression was no more than 0.026.
A31U A62C U63C showed a nonsense suppression of no more than 0.026.
With A30G A31G A60U the nonsense suppression was 0.726.
In the case of A31G C83A, the nonsense suppression is reported as 0.0481.
A30C C34G C75G gave a nonsense suppression of no more than 0.026.
For A31G U63C G88C, the nonsense suppression was no more than 0.026.
For A31U C34G, the nonsense suppression was no more than 0.026.
C29U G32U U57A A62G U63C G69C gave a nonsense suppression of no more than 0.026.
A30G U63A G69C C79A gave a nonsense suppression of no more than 0.026.
In the case of C29G U63A C80U, the nonsense suppression is reported as no more than 0.026.
Work on A31C A60C yielded a nonsense suppression of no more than 0.026.
Variant A30G U70C G78A has a nonsense suppression of no more than 0.026.
With A31U G59A C80U the nonsense suppression was no more than 0.026.
Work on C29U C68A U71A yielded a nonsense suppression of no more than 0.026.
In the case of A31G U58A C68G, the nonsense suppression is reported as no more than 0.026.
With A30C C83A A89G the nonsense suppression was no more than 0.026.
For C29A U63C, the nonsense suppression was no more than 0.026.
With A31C C80U the nonsense suppression was no more than 0.026.
A31C C80A showed a nonsense suppression of no more than 0.026.
In the case of C29G U57G C83G, the nonsense suppression is reported as no more than 0.026.
Variant A30U U58A G65C C80A has a nonsense suppression of no more than 0.026.
A30C G32U G84C showed a nonsense suppression of no more than 0.026.
In the case of A31C G85C, the nonsense suppression is reported as no more than 0.026.
In the case of A31C G85A, the nonsense suppression is reported as no more than 0.026.
A31G U55A G65A showed a nonsense suppression of no more than 0.026.
A30G G32C U70C showed a nonsense suppression of no more than 0.026.
With C29U G86C the nonsense suppression was 0.0331.
A30G U35A C72G G78C G88C gave a nonsense suppression of no more than 0.026.
A30U C77U showed a nonsense suppression of no more than 0.026.
A30C G61C showed a nonsense suppression of no more than 0.026.
For A31C C34U, the nonsense suppression was no more than 0.026.
For A31C C34A, the nonsense suppression was no more than 0.026.
In the case of C29U A30G A54C C75A, the nonsense suppression is reported as 0.0386.
Work on C29U A62C A74U G85U yielded a nonsense suppression of no more than 0.026.
For A30U A62U U71A, the nonsense suppression was no more than 0.026.
Work on A30U A74U yielded a nonsense suppression of 0.0497.
With A30G G69C the nonsense suppression was no more than 0.026.
For A30G G32U G88C, the nonsense suppression was no more than 0.026.
Work on A31G C34G U76G yielded a nonsense suppression of no more than 0.026.
With A30U C64A the nonsense suppression was no more than 0.026.
A30G G32U U57A G88A showed a nonsense suppression of no more than 0.026.
With A31U C81G the nonsense suppression was no more than 0.026.
In the case of C29U A31C, the nonsense suppression is reported as no more than 0.026.
For C29U A31G, the nonsense suppression was 0.0421.
C29U C72U showed a nonsense suppression of 0.101.
With C29G G85C the nonsense suppression was no more than 0.026.
A31U G73C C81G showed a nonsense suppression of no more than 0.026.
C29U U58G G88U showed a nonsense suppression of no more than 0.026.
With C29U C34U G66C the nonsense suppression was no more than 0.026.
With C29U U35A C56G G84A the nonsense suppression was no more than 0.026.
Variant C29U U58G has a nonsense suppression of no more than 0.026.
Variant C29U C82U has a nonsense suppression of 0.224.
A30C U70C G84U showed a nonsense suppression of no more than 0.026.
For A30C U71G, the nonsense suppression was no more than 0.026.
For A30C C34G, the nonsense suppression was no more than 0.026.
A30C G61U U63G C68U showed a nonsense suppression of no more than 0.026.
Work on C29G G73C G88U yielded a nonsense suppression of no more than 0.026.
In the case of A31C U57G G59C A74C G78U G86A, the nonsense suppression is reported as no more than 0.026.
Work on A31C G67A G88C yielded a nonsense suppression of no more than 0.026.
A31U A87C showed a nonsense suppression of no more than 0.026.
With A31U A87G the nonsense suppression was no more than 0.026.
